Source: PubChem BioAssay AID1963449 (Molecular Pharmacology Branch, DTP, NCI, 2024)
Not every entry of the source has a single result; some have several. This list holds those alone. The source may hold further records. The values listed for one entry are repeated measurements across runs, samples, wells, individuals or studies.

System: 596521-263-R-J1-PDC complex spheroid growth
Assay: Anticancer human tumor 596521-263-R-J1-PDC patient-derived soft tissue sarcoma cell line growth inhibition [Asc]
Settings: for IC50: compound alone; for viability, T/C: stronger effect = lower value
Experimental: Multicellular complex tumor spheroid response to apoptosis pathway targeting inhibitors Alrizomadlin, Pelcitoclax, and Dasminapant in combination with a variety of drugs and investigational agents in selected tumor cell lines
The MDM2 inhibitor alrizomadlin, the Bcl-2/Bcl-xL inhibitor pelcitoclax, and the IAPs inhibitor dasminapant were evaluated both individually and in combination with standard of care and investigational anticancer small molecules within a complex spheroid model of solid tumors. . Complex spheroids include a stromal component modeled by human endothelial cells (HUVEC) and fibroblasts modeled by human mesenchymal stem cells (MSCs). The concentration ranges selected for each drug and investigational agent were based upon clinically achievable concentrations if the clinical Cmax of the agent was known.
Compounds. The drugs and investigational agents: alrizomadlin (APG-115; NSC831270), pelcitoclax (APG-1252; NSC835773), dasminapant (APG-1387;NSC834197), TAK-243 (NSC785004), copanlisib (NSC809693), olaparib (NSC753686), talazoparib (NSC767125), cobimetinib (NSC 768068), eltanexor (KPT-8602, NSC 794443), abemaciclib (NSC 768073), sotorasib (NSC818433), adagrasib (NSC 831453), MRTX-1133 (NSC 836407), Iadademestat (ORY1001, NSC 806812), and RMC-4630 (NSC839698), were obtained from the NCI Developmental Therapeutics Program Chemical Repository. The FDA-approved anticancer drug set is available from the Developmental Therapeutics Program at https://dtp.cancer.gov/organization/dscb/obtaining/available plates.htm. […] The stock solutions were prepared in dimethyl sulfoxide (DMSO, Sigma-Aldrich, St. Louis, MO, cat. D2650) at 800-fold the tested concentration and stored at -70 degrees C prior to their use. All drugs and investigational agents were tested over a range starting from a high concentration at or near the clinical Cmax and decreasing in half-log increments. If the clinical Cmax for an agent had not been determined, the highest concentration tested was 10 microM.
The patient-derived cancer (PDC) cell lines include five colon adenocarcinomas: 186277-243-T-J2-PDC, 616215-338-R-J1-PDC, 439559-082-T-J2-PDC, 463943-066-T-J2-PDC, and 519858-162-T-J1-PDC; three pancreatic carcinomas: 323965-272-R-J2-PDC, 521955-158-R6-J3-PDC, and 521955-158-R2-J5-PDC; two uterine sarcomas: 327498-152-R-J2-PDC and 993429-296-R-J1-PDC; two rhabdomyosarcomas: 755483-174-R-J1-PDC and 772245-204-R-J1-PDC; two soft tissue sarcomas: 126254-015-R-J1-PDC and 494315-158-R-J1-PDC; two malignant fibrous histiocytomas: 317291-083-R-J1-PDC and 596521-263-R-J1-PDC; two breast carcinomas: 171881-019-R-J1-PDC and 885512-296-R-J2-PDC; and one ovarian carcinoma: 6556581-035-R-J-PDC were obtained from the NCI PDMR, (https://pdmr.cancer.gov). The established cell lines HSSY-2 synovial sarcoma (RRID:CVCL 8719), SYO-1 synovial sarcoma (RRID:CVCL_7146), MPNST malignant peripheral neural sheath tumor were obtained from the Sloan Kettering Institute. […]
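Note: spheroids exposed to compounds for 7 days.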

Row | IC50 | IC50 (drug combinations, run of 11/15/2022) | SMILES | viability, T/C (compound alone 0.00316 µM) | viability, T/C (compound alone 0.01 µM) | viability, T/C (compound alone 0.316 µM)
1 | 30.6 nM, 37 nM, < 0.949 nM |  | NC(=O)C(=Cn1cnc(-c2cc(C(F)(F)F)cc(C(F)(F)F)c2)n1)c1cncnc1 |  |  | 
2 |  | < 3.16 nM and > 1 µM | CNC(C)C(=O)NC1CN(S(=O)(=O)c2cccc(S(=O)(=O)N3CCC4CCC(C(=O)NC(c5ccccc5)c5ccccc5)N4C(=O)C(NC(=O)C(C)NC)C3)c2)CCC2CCC(C(=O)NC(c3ccccc3)c3ccccc3)N2C1=O (stereo not given) | 92.7, 98.4, 16.4, 80.9, 108, 98% | 86.8, 95.2, 70.1, 83.7, 112, 89.4% | 77.6, 90.1, 82.5, 71.3, 104, 91%
